Reference: patent US9271993B2, “Treatment of bacterial infectious diseases” (priority 2010, dated 2016)

Assays:
deafness 1555G ribosomes = test: Ribosomal drug susceptibility (MIC) of recombinant bacteria; design: MIC, deafness 1555G ribosomes: unit not given beside the values; conditions: for MIC, deafness 1555G ribosomes: Table 7, 72 h incubation; for MIC, bacteria with deafness 1555G ribosome: Table 10
From the text: (§1) A single rRNA allelic strain of Mycobacteriumn smegmatis was used for rRNA mutagenesis (Sander et al., Mol. Microbiol. 1996, 22:841-848). Key nucleotides which distinguish the prokaryotic from the eukaryotic decoding site are rRNA positions 1408 (bacterial ribosome: A, eukaryotic cytosolic ribosomes: G) and 1491 (bacterial ribosomes: G, eukaryotic cytosolic ribosomes: A, eukaryotic mitochondrial ribosomes).
(§2) Various versions of the eukaryotic drug binding site were transplanted into the bacterial ribosome (WO 2008/092690) to result in hybrid ribosomes, termed mitohybrid ribosomes, cytohybrid ribosomes, deafness 1555G ribosomes, deafness 1494U ribosomes (for methodology, rationale and hybrid ribosomes used, see Hobbie et al., Nucleic Acids Res. 2007, 35:6086-6093; Proc. Natl. Acad. Sci. USA 2008, 105:3244-3249; Proc. Natl. Acad. Sci. USA 2008, 105:20888-20893).
(§3) Ribosomal drug susceptibility was studied by measuring the minimal inhibitory concentrations, as described in Pfister et al., Animicrob. Agents Chemother. 2003, 47:1496-1502. The recombinants carrying the respective mutational alterations were subjected to determinations of minimal inhibitory concentrations (MIC) to assess ribosomal drug susceptibility.
(§4) For further detail on methodology see description in Example 7.

deafness 1494U ribosomes = test: as above; design: MIC, deafness 1494U ribosombes: unit not given beside the values; conditions: for MIC, deafness 1494U ribosombes: Table 7, 72 h incubation; for MIC, bacteria with deafness 1494U ribosome: Table 10
From the text: as §1, §2, §3, §4

## CNC1C(OC2OC(CO)C(N)C(O)C2O)OC2CC(N)C(OC3C(N)CC(N)C(O)C3O)OC2C1O (stereo not drawn) [Apramycin]
Deafness 1555G ribosomes
  MIC, deafness 1555G ribosomes: 1024
  MIC, bacteria with deafness 1555G ribosome: >256.0 µg/mL
Deafness 1494U ribosomes
  MIC, deafness 1494U ribosombes: 1024
  MIC, bacteria with deafness 1494U ribosome: >256.0 µg/mL

## CC(=O)O.CC(=O)O.CC(=O)O.CC(=O)O.CN[C@@H]1[C@@H](O[C@H]2O[C@H](CO)[C@@H](N)[C@H](O)[C@H]2O)O[C@H]2C[C@@H](NC(=O)[C@@H](O)CCN)[C@@H](O[C@H]3[C@H](O)[C@@H](O)[C@H](N)C[C@@H]3N)O[C@@H]2[C@@H]1O [ETH 100, 2′-N-[(2S)-4-Amino-2-hydroxybutyryl]apramycin tetraacetate]
Deafness 1555G ribosomes
  MIC, bacteria with deafness 1555G ribosome: >256.0 µg/mL
Deafness 1494U ribosomes
  MIC, bacteria with deafness 1494U ribosome: >256.0 µg/mL

## CC(=O)O.CC(=O)O.CC(=O)O.CC(=O)O.CNC1C(OC2OC(CO)C(N)C(O)C2O)OC2CC(N)C(OC3C(N)CC(NC(=O)C(O)CCN)C(O)C3O)OC2C1O [ETH 102, 1-N-[(2S)-4-Amino-2-hydroxybutyryl]apramycin tetraacetate]
Deafness 1555G ribosomes
  MIC, bacteria with deafness 1555G ribosome: >256.0 µg/mL
Deafness 1494U ribosomes
  MIC, bacteria with deafness 1494U ribosome: >256.0 µg/mL

## CC(=O)O.CC(=O)O.CC(=O)O.CC(=O)O.CNC1C(OC2OC(CO)C(N)C(O)C2O)OC2CC(NC(=O)C(O)CCN3C(=O)c4ccccc4C3=O)C(OC3C(N)CC(N)C(O)C3O)OC2C1O (stereo not drawn) [ETH 103]
Deafness 1555G ribosomes
  MIC, bacteria with deafness 1555G ribosome: >256.0 µg/mL
Deafness 1494U ribosomes
  MIC, bacteria with deafness 1494U ribosome: >256.0 µg/mL

## CNC1C(OC2OC(CO)C(NC(=O)C(O)CCN)C(O)C2O)OC2CC(N)C(OC3C(N)CC(N)C(O)C3O)OC2C1O [ETH 105, 4″-N-[(2S)-4-Amino-2-hydroxybutyryl]apramycin]
Deafness 1555G ribosomes
  MIC, bacteria with deafness 1555G ribosome: >256.0 µg/mL
Deafness 1494U ribosomes
  MIC, bacteria with deafness 1494U ribosome: >256.0 µg/mL

## NC[C@H]1O[C@H](O[C@H]2[C@H](O)[C@@H](O[C@H]3O[C@H](CO)[C@@H](O)[C@H](N)[C@H]3O)[C@H](N)C[C@@H]2N)[C@H](N)C[C@@H]1O [Tobramycin]
Deafness 1555G ribosomes
  MIC, deafness 1555G ribosomes: 16
Deafness 1494U ribosomes
  MIC, deafness 1494U ribosombes: 16

## Gentamicin
Deafness 1555G ribosomes
  MIC, deafness 1555G ribosomes: 16
Deafness 1494U ribosomes
  MIC, deafness 1494U ribosombes: 16

## Neomycin
Deafness 1555G ribosomes
  MIC, deafness 1555G ribosomes: 8
Deafness 1494U ribosomes
  MIC, deafness 1494U ribosombes: 8
